Consider 3 molecules from patent US20240025993A1, “CD19 BINDING MOLECULES AND USES THEREOF” (NOVARTIS AG, priority 2020, published 2024).

“Also recorded” adds a separate entry of the source.

The test system of one series is Nalm6-luc cells. The series can be described thus: RTCC assay with BBMs (Example 2). It counts as cell-based, human. The method, then:
(§1) A RTCC assay with the BBMs of Example 1A was performed to measure the ability of the BBMs to elicit RTCC against CD19+ Nalm6-luc and Karpas422-luc cells. Nalm-6 is a human B cell precursor leukemia cell line and Karpas422 is a human B-cell non-hodgkin lymphoma cell line. Briefly, Nalm6 and Karpas422 cells engineered to express the firefly luciferase reporter gene were cultured in RPM 11640 culture media with 10% fetal bovine serum (FBS). 10,000 target cells with serial diluted BBMs or gH isotype antibody control (αgH-CD3hi) were seeded on 384-well flat-bottom microtiter plate. Primary human T cells were isolated from cryopreserved peripheral blood mononuclear cells (PBMCs) and expanded using anti-CD3 and anti-CD28 dynabeads (Thermo fisher, catalog #11131 D) and subsequently cryopreserved. Expanded T cells were thawed and aliquoted to the plate to achieve an effector cell (i.e., T cell) to target cell (i.e., cancer cell) ratio (E:T ratio) of 3:1. Plates were incubated in a 37° C. incubator with 5% CO2 overnight. Following the co-incubation, Bright Glo (Promega, catalog #E2620) was added to all wells and the luminescence signal was subsequently measured on an Envision (Perkin Elmer). Target cells with Bright Glo served as maximal signal. The percent RTCC of target cells was calculated using the following formula: [100−(sample/maximal signal)*100%].

The test system of another series is Karpas422-luc cells. As to the kind of experiment: RTCC assay with BBMs (Example 2). The series is classed as cell-based, human. The method, then:
as §1

The test system of series [1] is T cells co-cultured with Nalm6 target cells. As to the kind of experiment: Cytokine release assay, multiplexed ELISA (Example 10). The series is classed as cell-based, human. The note with it: E:T 5:1, 24 hr; R variants. The method, then: Briefly, huCD19-expressing Nalm6 target cells were harvested and resuspended in RPMI medium with 10% FBS. 20,000 target cells per well were plated in a flat-bottom 96-well plate. Human pan T effector cells were isolated via MACS negative selection from cryopreserved PBMC then added to the plate to obtain a final E:T ratio of 5:1. Co-cultured cells were incubated with serial dilutions of all constructs and controls. After an incubation of 24 hr at 37° C., 5% CO2, the supernatants were harvested by centrifugation at 300×g for 5 min for subsequent analysis.
A multiplexed ELISA was performed according to the manufacturer's instructions using a V-PLEX Proinflammatory Panel 1 Kit (MesoScale Discovery #K15049D).

The subject of series [2] is wild type 300.19 cell line. The series can be described thus: Binding of TBMs to wild type 300.19 cells (Example 11). The arrangement: species or system mouse. The note with it: flow cytometry; R variants. The method, then:
The mouse cell line 300.19 was engineered to overexpress either human CD19 or cyno CD19. Cells were cultured in RPMI medium (Invitrogen #11875-093) with 10% FBS and 2-mercaptoethanol. Cells were harvested and resuspended in FACS buffer (PBS containing 1% FBS). 50,000 cells per well were plated in a V-bottom 96-well plate. Each cell line was incubated with serial dilutions of TBMs of Example 1A (i.e., R variants) for one hour on ice. Cells were centrifuged for 4 min at 400×g and washed with FACS buffer. This was repeated twice, and then the cells were incubated with Alexa-647 labeled anti-human Fc secondary antibody (Jackson Immuno #109-605-098) for 30 min on ice. The cells were washed twice, then resuspended in 100 μL of FACS buffer. FACS data was collected on a Beckman Coulter Cytoflex and analysis was performed using CytExpert v2.3.
For orientation: A flow cytometer gives signals particle by particle.

The subject of the next series is Nalm6 target cells. As to the kind of experiment: Re-directed T cell cytotoxicity by CD19 TBMs (Example 7). The conditions noted are these: E:T 3:1 or 5:1; 24, 48, 72 or 96 hr; two T cell donors; R variants. It counts as cell-based, human. The method, then: (§2) In one study, the TBMs were compared across multiple donor effector cells. Briefly, huCD19-expressing Nalm6 or Karpas422 target cells were engineered to overexpress firefly luciferase. Cells were harvested and resuspended in RPMI medium (Invitrogen #11875-093) with 10% FBS. 2,500 target cells per well were plated in a flat-bottom 384-well plate. Human pan T effector cells were isolated via MACS negative selection (Miltenyi Biotec #130-096-535) from two donors from cryopreserved PBMC (Cellular Technologies Limited #CTL-UP1) then added to the plate to obtain a final E:T ratio of 3:1 or 5:1. Co-cultured cells were incubated with a serial dilution of all constructs and controls. For normalization, average maximum luminescence refers to target cells co-incubated with effector cells, but without any test construct. After an incubation of 24, 48, 72 or 96 hr at 37° C., 5% CO2, OneGlo luciferase substrate (Promega #E6120) was added to the plate. Luminescence was measured on an Envision plate reader after a 10 minute incubation. Percent specific lysis was calculated using the following equation: Specific lysis (%)=(1−(sample luminescence/average maximum luminescence))*100

The test system of another series is Karpas422 target cells. The description is as above. The series is classed as cell-based, human. The note with it: E:T 3:1 or 5:1; 24, 48, 72 or 96 hr; two T cell donors; R variants. The method, then:
as §2

B1: NEG218-based BBM: bispecific of Example 1A: NEG218 anti-CD19 half antibody and CD3hi anti-CD3 scFv-Fc, knob-into-hole (antibody)
heavy: EVQLVQSGAEVKKPGESLKISCKASGYSFTNYWMNWVRQMPGKGLEWMGMIHPSDSEIRLNQKFQGQVTLSVDKSIGTAYMQWSSLKASDTAMYYCSRWYYLSSPMDYWGQGTTVTVSSASTKGPSVFPLAPSSKSTSGGTAALGCLVKDYFPEPVTVSWNSGALTSGVHTFPAVLQSSGLYSLSSVVTVPSSSLGTQTYICNVNHKPSNTKVDKRVEPKSCDKTHTCPPCPAPELLGGPSVFLFPPKPKDTLMISRTPEVTCVVVAVSHEDPEVKFNWYVDGVEVHNAKTKPREEQYASTYRVVSVLTVLHQDWLNGKEYKCKVSNKALAAPIEKTISKAKGQPREPQVCTLPPSREEMTKNQVSLSCAVKGFYPSDIAVEWESNGQPENNYKTTPPVLDSDGSFFLVSKLTVDKSRWQQGNVFSCSVMHEALHNHYTQKSLSLSPGK
light: EIVMTQSPATLSVSPGERATLSCRASQDVGTAVAWYQQKPGQAPRLLIYWASTRHTGIPARFSGSGSGTEFTLTISSLQSEDFAVYFCQQYSSYPYTFGQGTKLEIKRTVAAPSVFIFPPSDEQLKSGTASVVCLLNNFYPREAKVQWKVDNALQSGNSQESVTEQDSKDSTYSLSSTLTLSKADYEKHKVYACEVTHQGLSSPVTKSFNRGEC
chain: EVQLVESGGGLVQPGGSLKLSCAASGFTFNTYAMNWVRQASGKGLEWVGRIRSKYNNYATYYADSVKDRFTISRDDSKSTLYLQMNSLKTEDTAVYYCVRHGNFGNSYVSWFAYWGQGTLVTVSSGGGGSGGGGSGGGGSGGGGSQAVVTQEPSLTVSPGGTVTLTCRSSTGAVTTSNYANWVQQKPGQAPRGLIGGTNKRAPWTPARFSGSLLGDKAALTLSGAQPEDEAEYFCALWYSNLWVFGGGTKLTVLGGGGSDKTHTCPPCPAPELLGGPSVFLFPPKPKDTLMISRTPEVTCVVVAVSHEDPEVKFNWYVDGVEVHNAKTKPREEQYASTYRVVSVLTVLHQDWLNGKEYKCKVSNKALAAPIEKTISKAKGQPREPQVYTLPPCREEMTKNQVSLWCLVKGFYPSDIAVEWESNGQPENNYKTTPPVLDSDGSFFLYSKLTVDKSRWQQGNVFSCSVMHEALHNRYTQKSLSLSPGK
Regarding B1, the “redirected T-cell cytotoxic activity (RTCC)” value in the series with Nalm6-luc cells and with Karpas422-luc cells was “mediated RTCC activity” throughout.

B2: NEG218-based TBM: TBM of Example 1A with NEG218-based CD19 binding arm; probably CD3hi TSP2 (R variant) (antibody)
heavy: EVQLVQSGAEVKKPGESLKISCKASGYSFTNYWMNWVRQMPGKGLEWMGMIHPSDSEIRLNQKFQGQVTLSVDKSIGTAYMQWSSLKASDTAMYYCSRWYYLSSPMDYWGQGTTVTVSSASTKGPSVFPLAPSSKSTSGGTAALGCLVKDYFPEPVTVSWNSGALTSGVHTFPAVLQSSGLYSLSSVVTVPSSSLGTQTYICNVNHKPSNTKVDKRVEPKSCGGGGSGGGGSEVQLVESGGGLVQPGGSLKLSCAASGFTFNTYAMNWVRQASGKGLEWVGRIRSKYNNYATYYADSVKDRFTISRDDSKSTLYLQMNSLKTEDTAVYYCVRHGNFGNSYVSWFAYWGQGTLVTVSSGGGGSGGGGSGGGGSGGGGSQAVVTQEPSLTVSPGGTVTLTCRSSTGAVTTSNYANWVQQKPGQAPRGLIGGTNKRAPWTPARFSGSLLGDKAALTLSGAQPEDEAEYFCALWYSNLWVFGGGTKLTVLGGGGSDKTHTCPPCPAPELLGGPSVFLFPPKPKDTLMISRTPEVTCVVVAVSHEDPEVKFNWYVDGVEVHNAKTKPREEQYASTYRVVSVLTVLHQDWLNGKEYKCKVSNKALAAPIEKTISKAKGQPREPQVCTLPPSREEMTKNQVSLSCAVKGFYPSDIAVEWESNGQPENNYKTTPPVLDSDGSFFLVSKLTVDKSRWQQGNVFSCSVMHEALHNHYTQKSLSLSPGK
light: B1 light
chain: SQQIYGVVYGNVTFHVPSNVPLKEVLWKKQKDKVAELENSEFRAFSSFKNRVYLDTVSGSLTIYNLTSSDEDEYEMESPNITDTMKFFLYVLESGGGGSDKTHTCPPCPAPELLGGPSVFLFPPKPKDTLMISRTPEVTCVVVAVSHEDPEVKFNWYVDGVEVHNAKTKPREEQYASTYRVVSVLTVLHQDWLNGKEYKCKVSNKALAAPIEKTISKAKGQPREPQVYTLPPCREEMTKNQVSLWCLVKGFYPSDIAVEWESNGQPENNYKTTPPVLDSDGSFFLYSKLTVDKSRWQQGNVFSCSVMHEALHNRYTQKSLSLSPGK
Take B2: the “cytokine secretion by T cells (IFN-γ, TNF-α, IL2)” value in series [1] was “induce significant cytokine secretion by T cells at all dose levels measured”. In addition, the “binding to wild type 300.19 cell line” value in series [2] was “negligible binding”. The “cytotoxic activity (specific lysis)” value in the series with Nalm6 target cells and in the series on Karpas422 target cells was “show cytotoxic activity” in each case.

B3: NEG258-based TBM: TBM of Example 1A with NEG258-based CD19 binding arm; probably CD3hi TSP1 (R variant) (antibody)
heavy: QVQLVQSGAEVKKPGASVKVSCKASGYTFTTYWIQWVRQAPGQRLEWMGAVYPGDADTRYTQKFQGRVTLTADRSASTAYMELSSLRSEDTAVYYCGRDAGLEYYALDYWGQGTLVTVSSASTKGPSVFPLAPSSKSTSGGTAALGCLVKDYFPEPVTVSWNSGALTSGVHTFPAVLQSSGLYSLSSVVTVPSSSLGTQTYICNVNHKPSNTKVDKRVEPKSCGGGGSGGGGSEVQLVESGGGLVQPGGSLKLSCAASGFTFNTYAMNWVRQASGKGLEWVGRIRSKYNNYATYYADSVKDRFTISRDDSKSTLYLQMNSLKTEDTAVYYCVRHGNFGNSYVSWFAYWGQGTLVTVSSGGGGSGGGGSGGGGSGGGGSQAVVTQEPSLTVSPGGTVTLTCRSSTGAVTTSNYANWVQQKPGQAPRGLIGGTNKRAPWTPARFSGSLLGDKAALTLSGAQPEDEAEYFCALWYSNLWVFGGGTKLTVLGGGGSDKTHTCPPCPAPELLGGPSVFLFPPKPKDTLMISRTPEVTCVVVAVSHEDPEVKFNWYVDGVEVHNAKTKPREEQYASTYRVVSVLTVLHQDWLNGKEYKCKVSNKALAAPIEKTISKAKGQPREPQVCTLPPSREEMTKNQVSLSCAVKGFYPSDIAVEWESNGQPENNYKTTPPVLDSDGSFFLVSKLTVDKSRWQQGNVFSCSVMHEALHNHYTQKSLSLSPGK
light: EIVMTQSPATLSVSPGERATLSCRASQDVGTAVAWYQQKPGQAPRLLIYWASTRHTGIPARFSGSGSGTEFTLTISSLQSEDFAVYFCQQYANFPLYTFGQGTKLEIKRTVAAPSVFIFPPSDEQLKSGTASVVCLLNNFYPREAKVQWKVDNALQSGNSQESVTEQDSKDSTYSLSSTLTLSKADYEKHKVYACEVTHQGLSSPVTKSFNRGEC
chain: B2 chain
B3: in series [1], the “cytokine secretion by T cells (IFN-γ, TNF-α, IL2)” value is given as “induce significant cytokine secretion by T cells at all dose levels measured”. For the same molecule, the “binding to wild type 300.19 cell line” value in series [2] is “negligible binding”. In addition, the “cytotoxic activity (specific lysis)” value in the series with Nalm6 target cells and in the series on Karpas422 target cells was “show cytotoxic activity; also recorded: more potent than the NEG218-based TBM” each time.
